Among all 310,000 compounds or so, about 14,000 (4.5%) showed an effect of 50% or more. Effects have a minus sign here. This is one part of the list.
What follows are molecules tested against human ether-à-go-go-related gene (hERG) potassium channel (human, UniProt Q12809) (assay: primary screen, population patch clamp on CHO cells stably expressing hERG).
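Further: peak tail current of the secondary pulse compared with the same well before compound.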

Sequence of human ether-à-go-go-related gene (hERG) potassium channel (Q12809 whole entry, looked up): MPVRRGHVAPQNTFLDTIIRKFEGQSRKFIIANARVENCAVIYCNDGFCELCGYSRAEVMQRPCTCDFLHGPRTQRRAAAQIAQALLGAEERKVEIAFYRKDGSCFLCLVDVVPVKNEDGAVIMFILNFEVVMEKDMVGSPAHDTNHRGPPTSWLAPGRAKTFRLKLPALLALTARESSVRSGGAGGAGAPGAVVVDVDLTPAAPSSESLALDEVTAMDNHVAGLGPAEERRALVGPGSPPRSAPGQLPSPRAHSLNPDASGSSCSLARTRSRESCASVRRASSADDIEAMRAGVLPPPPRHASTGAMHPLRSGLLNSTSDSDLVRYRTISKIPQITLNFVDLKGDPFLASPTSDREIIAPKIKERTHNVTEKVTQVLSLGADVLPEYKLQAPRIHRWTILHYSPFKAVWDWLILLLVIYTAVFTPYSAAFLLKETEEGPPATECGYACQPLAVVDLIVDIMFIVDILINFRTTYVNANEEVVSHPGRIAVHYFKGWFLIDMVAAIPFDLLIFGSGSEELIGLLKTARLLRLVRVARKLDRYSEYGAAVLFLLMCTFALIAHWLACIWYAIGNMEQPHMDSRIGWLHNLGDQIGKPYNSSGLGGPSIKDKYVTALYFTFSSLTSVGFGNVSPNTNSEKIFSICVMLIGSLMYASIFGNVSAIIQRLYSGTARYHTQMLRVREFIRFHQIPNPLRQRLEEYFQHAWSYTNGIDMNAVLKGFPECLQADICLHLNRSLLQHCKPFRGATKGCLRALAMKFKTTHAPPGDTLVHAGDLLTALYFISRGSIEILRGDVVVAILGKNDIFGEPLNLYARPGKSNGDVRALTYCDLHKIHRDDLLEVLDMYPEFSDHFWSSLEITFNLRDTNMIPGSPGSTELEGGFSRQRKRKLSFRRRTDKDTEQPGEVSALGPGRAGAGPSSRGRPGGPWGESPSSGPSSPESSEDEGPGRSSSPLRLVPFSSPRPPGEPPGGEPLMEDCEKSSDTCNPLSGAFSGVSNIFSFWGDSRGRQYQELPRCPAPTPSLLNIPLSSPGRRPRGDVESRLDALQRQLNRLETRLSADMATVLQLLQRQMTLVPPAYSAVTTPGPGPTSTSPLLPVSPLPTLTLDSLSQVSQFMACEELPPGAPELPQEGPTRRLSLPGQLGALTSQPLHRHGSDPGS

| Compound | hERG current change (%, negative = inhibition) at 10uM |
| --- | --- |
| Cc1nnsc1C(=O)Nc1ccc(Cl)cc1Cl | 7.78% |
| O=c1cc(CO)oc(C(Nc2cccc(C(F)(F)F)c2)c2ccccn2)c1O (centres unmarked) | 6.7% |
| CC(C)(CCl)C(=O)Nc1ccc(Sc2ccc(F)cc2)cc1 | -11.6% |
| O=C(Nc1ccc(F)cc1)C1CCCN(S(=O)(=O)c2cccc3nonc23)C1 (centres unmarked) | 5.63% |
| N#CC1=C(O)C(c2ccccc2)n2c1nc(=O)c1ccccc12 (centres unmarked) | -16.9% |
| CC(C)(C)c1ccc(OCCN2CCCC2)cc1 | -20.6% |
| O=S(=O)(CC(CN1CCCC1)N1CCCC1)c1ccc2ccccc2c1 (centres unmarked) | -32.7% |
| CC(C)Cc1nnc(NC(=O)CN2C(=O)C3CCCCC3C2=O)s1 (centres unmarked) | -4.12% |
| COC(=O)c1cccc(NC(=O)CN(c2ccc3c(c2)OCO3)S(C)(=O)=O)c1C | 16.4% |
| COc1ccc(C2=NS(=O)(=O)N(C)C(C(=O)N(C)Cc3ccccc3)=C2)cc1OC | -6.75% |
| C=CCN1C(=O)/C(=C/c2ccc(OC)cc2)S/C1=N/c1nccs1 | 13.4% |
| O=C(CSc1ncccn1)NC(=O)NCc1ccco1 | -43.9% |
| CC1CC(OP(O)(=S)c2ccc(N(C)C)cc2NC(=O)c2cccs2)CC(C)(C)C1 (centres unmarked) | 8.37% |
| COC(=O)c1oc2nc(C)cc(C)c2c1N | -4.33% |
| CCc1nnc(NC(=O)CN2CCN(c3ccccc3OC)CC2)s1.Cl | -17.6% |
| O=C(NCc1ccccc1)C1CCN(S(=O)(=O)c2cccc3cccnc23)CC1 | -13.8% |
| CC1CC(=O)c2cn3c(nc2C1)nc1ccccc13 (centres unmarked) | -24.3% |
| O=C(NCCN1CCCCCC1)C1CC(=O)N(CCc2ccccc2)C1 (centres unmarked) | 3.04% |
| CC12CN3CC(=O)N4CC5(C)CN(CC(C)(C4)C5=O)C(=O)CN(C1)CC(C)(C3)C2=O | 17.6% |
| Cc1ccc(OCCNC(=O)c2cc(-n3cnnc3)ccc2Cl)cc1C | -15% |
| CC(=O)Nc1ccc(NS(=O)(=O)c2cc(C)sc2C)cc1 | -10.6% |
| CCOC(=O)C1CCN(C(=O)COC(=O)c2cccc(F)c2)CC1 | 11.1% |
| O=C(NCC1(c2ccccc2)CCCC1)c1cccc(Br)c1 | 4.39% |

| Compound | hERG current change (%, negative = inhibition) at 10uM |
| --- | --- |
| COc1ccc(-c2noc(CN(C(=O)c3ccoc3C)C(C)C)n2)cc1 | 9.67% |
| Brc1c(CSc2nc3ccccc3o2)nc2ncccn12 | -51.8% |
| CCCn1c2ccc(F)cc2c2nnc(SCCN3CCOCC3)nc21 | -35.8% |
| O=C(NCc1ccc(Cl)cc1)C1CCCN(c2cnccn2)C1 (centres unmarked) | -66.5% |
| CCCOP(=O)(c1ccc(N(C)C)cc1)C(O)c1cccnc1 (centres unmarked) | -5.24% |
| O=C(CN1CCOCC1)Nc1ncc(Cc2cccc(Cl)c2Cl)s1 | -51.4% |
| Cc1nc2ccccc2n1S(=O)(=O)c1ccc(S(=O)(=O)N2CCCCCC2)cc1 | 16.8% |
| COc1cc2[nH]c3c(=O)n4c(nc3c2cc1OC)SCCC4 | -10.7% |
| COc1ccccc1CNS(=O)(=O)c1cc(CN2C(=O)c3cccnc3C2=O)ccc1OC | -19.4% |
| Cc1c(C(=O)O)nnn1-c1nonc1N | 27.1% |
| Cc1nnc(N/N=C/c2cc(C)n(-c3ccc(F)cc3)c2C)n1N.Cl | 2.95% |
| COC(=O)c1cc(Cl)c(NS(=O)(=O)c2ccccc2)cc1OC | 15.4% |
| Cc1ccc(-c2nn(-c3ccccc3)cc2C(=O)N2CCN(c3ccccn3)CC2)cc1 | 3.16% |
| CN(C)c1ccc(/C=C(\C#N)C(=O)NCc2ccco2)cc1 | -10.2% |
| O=C(NC1CC1)C1=C[C@@H](c2c[nH]c3ccccc23)C[C@@H](OCc2ccc(CO)cc2)O1 | -40.2% |
| C/C(=N\NC(=O)Cn1nc(C)c(Br)c1C)c1cccs1 | -9.14% |
| COCCNC(=O)CCc1nc2cccnc2n1Cc1ccc(OC)cc1 | 8.65% |
| COc1cc(OC)cc(C(=O)Nc2c(C)nn(-c3ccccc3)c2C)c1 | -3.27% |
| COc1cc(/C=C/c2[nH]c(=O)[nH]c(=O)c2[N+](=O)[O-])cc([N+](=O)[O-])c1O | 21.1% |
| COc1ccc(NC(=O)C(=O)NCC2CCCN2S(=O)(=O)c2cccs2)cc1 (centres unmarked) | 5.72% |
| Cc1n[nH]c(C)c1CCC(=O)N/N=C/c1cccs1 | 8.73% |
| CCCCN(C(=O)CSCC(=O)Nc1ccc(C)cc1)c1c(N)n(Cc2ccccc2)c(=O)[nH]c1=O | 6.4% |
| OC(c1nnc(-c2ccccc2)o1)c1cccs1 (centres unmarked) | 19.3% |

| Compound | hERG current change (%, negative = inhibition) at 10uM |
| --- | --- |
| COc1cc(CC(=O)OCC(=O)NC2CC2)cc(OC)c1OC | 10.4% |
| COc1cccc(OC)c1C(=O)Nc1cccc(-n2cnnn2)c1 | 15.7% |
| C=C1C[C@@]23CCC4[C@@](C)(CCC[C@@]4(C)C(=O)O)C2CC[C@]1(O)C3 (some centres unmarked) | 7.01% |
| COc1ccc(Cl)cc1S(=O)(=O)Nc1ccncc1 | 19.3% |
| Br.COc1ccc(C2=CSC3=NCCN23)cc1 | -6.09% |
| COc1cccc(C(=O)C2CCCN(C/C=C/c3ccccc3OC)C2)c1 (centres unmarked) | -68.4% |
| CCOC(=O)C1C(c2cccc([N+](=O)[O-])c2)C2C(=O)NN=C2CC1(C)O (centres unmarked) | 18.2% |
| Cc1ccc(-c2csc(Nc3ccc(C(=O)O)cc3)[n+]2Cc2ccccc2)cc1.[Br-] | 11% |
| CCn1ccnc1CN1CCCC(C(=O)c2ccc3cc(OC)ccc3c2)C1 (centres unmarked) | -70.6% |
| Cc1ccc(NC(=S)N2CCN(C3CCCCC3)CC2)cc1 | -13.2% |
| O=C(Nc1nnc(S(=O)(=O)N2CCOCC2)s1)c1cccc(Br)c1 | 16.6% |
| CC1(C)CC(Nc2ccc(Nc3ccccc3)cc2)CC(C)(C)N1 | -4.89% |
| CCOC(=O)C1=C(c2ccccc2)O/C(=C(\C(=O)OC)C(F)(F)F)S1 | 7.86% |
| CN1CCN(C(=O)C2=C[C@@H](c3csc4ccccc34)C[C@@H](OCCCCO)O2)CC1 | -20.2% |
| CC1N(C)c2cc(NC(=O)c3cccs3)c(P(=O)(Nc3ccc([N+](=O)[O-])cc3)N3CCOCC3)cc2C1(C)C (centres unmarked) | 12.2% |
| C=CCSc1nnc(CNC(=O)c2ccccc2C)n1C(C)C | 5.68% |
| C=CCN(C(=O)Nc1ccc2oc(C)nc2c1)c1ccccc1 | -10% |
| COc1ccc(NC(=O)c2sc(N3CCOCC3)nc2-c2ccccc2)c(OC)c1 | -44.3% |
| O=C(CCN1C(=O)c2ccccc2C1=O)NCCC1=CCCCC1 | -8.94% |
| CC(CC(=O)O)C(=O)c1ccc(Cl)c([N+](=O)[O-])c1 (centres unmarked) | 26.2% |
| Cc1ccc2nc(/C(C#N)=C/c3ccc(-c4ccccc4C(=O)O)o3)[nH]c2c1 | 19.8% |
| O=C(NC1=NCCS1)c1ccc(Cl)c(S(=O)(=O)N2CCCCC2)c1 | -2.52% |
| Cc1ccc(S(=O)(=O)N2CCCN(C(=O)CNC(=O)c3cccc(C)c3)CC2)cc1 | -54.3% |

| Compound | hERG current change (%, negative = inhibition) at 10uM |
| --- | --- |
| O=C(COC(=O)c1ccc(NS(=O)(=O)c2cccs2)cc1O)Nc1ccc(F)cc1 | 8.05% |
| COc1ccc(NC(=S)NNC(=O)Cn2nc(C(F)F)cc2C(F)F)cc1 | 13.4% |
| COC(=O)CCC(=O)Nc1ccc(S(=O)(=O)Nc2cc(OC)nc(OC)n2)cc1 | 8.49% |
| CC(C)(C)OC(=O)N/N=C/c1cc(N=Nc2ccccc2)ccc1O | 15.1% |
| CC(CCc1ccccc1)NCCC#N.Cl (centres unmarked) | 16.5% |
| O=C(/C=C/c1ccco1)Nc1ccccn1 | 5.98% |
| CC(=O)N=C1SC2CS(=O)(=O)CC2N1Cc1ccc(C)cc1 (centres unmarked) | 1.2% |
| Cc1c(CC(=O)O)c(=O)oc2cc3occ(-c4ccccc4)c3cc12 | -1.59% |
| CC(C)N1CCN(CCCc2ccccc2)CC1CCO (centres unmarked) | -4.39% |
| CN(Cc1cc2cc(F)ccc2[nH]1)Cc1nc(-c2cnccn2)no1 | -7.5% |
| COc1ccc(C(=O)Nc2ccc3c(c2)C(=O)NC3=O)cc1 | 1.7% |
| CC(C)CC(C)c1cc(N)nc2nc3ccccc3n12 (centres unmarked) | -48.3% |
| O=C(CC1(O)C(=O)Nc2ccccc21)c1ccc(-n2cnnn2)cc1 (centres unmarked) | 20.5% |
| CCc1sc(C(=O)Nc2cc(Cl)ccc2N2CCCCC2)cc1C | -2.72% |
| COCCn1c(SCC(=O)Nc2sccc2C(N)=O)nnc1-c1ccncc1 | 5.7% |
| Cc1cccc(Nc2ccccc2C(=O)OCC(=O)N2CCOCC2)c1C | 4.33% |
| Oc1ccc(/C=N/N2CCN(C3c4ccccc4-c4ccccc43)CC2)cc1O | 9.43% |
| Cc1ccc(S(=O)(=O)CCc2nnc(NC(=O)CCl)s2)cc1C | -27.2% |
| CC(C)=C(NC(=O)c1ccccc1)C(=O)NCc1ccccc1 | 9.27% |
| O=C1CCCCC1Oc1ccc2ccc(=O)oc2c1 (centres unmarked) | 19.6% |
